This is one part of the list. At the low end of the ranking the order means little.

The target in this experiment is SIX1-Q177R homeodomain (UniProt Q15475). Briefly: universal protein binding microarray. To be noted: Universal all-10-mer PBM (8x60K, AMADID 030236), 300 nM GST-tagged protein, Alexa Fluor 488 anti-GST; buffer, salt, pH and temperature not stated; high values mean tight binding; most listed sequences are background and not binding sites; double strand, one strand shown.
CCTTATGA: the binding signal was found to be 0.0555 E-score.

With AATGGTCG, the binding signal is -0.177 E-score.

With TCTTTAAA, the binding signal is -0.277 E-score.

On to CAGTGGCA, for which the binding signal is -0.16 E-score.

On to ACCCTCCG, for which the binding signal is 0.271 E-score.

Consider CCGGAGGA, for which the binding signal is -0.0309 E-score.

On to AGTCAAAG, for which the binding signal was -0.138 E-score.

GAGGCCTC: the binding signal was -0.227 E-score.

Regarding ATGTCAAC, the binding signal was -0.019 E-score.

Take ACGTACCA: the binding signal was -0.187 E-score.

Turning to AGAAATCA, the binding signal was -0.235 E-score.

As for ACGGCGAA, the binding signal is -0.0873 E-score.

For CAACGTAG, the binding signal is -0.0281 E-score.

For ATACAACG, the binding signal was -0.206 E-score.

Turning to CCTGCATA, the binding signal is 0.0471 E-score.

With CAGACGTC, the binding signal is -0.145 E-score.

Turning to AGAGGGAC, the binding signal was -0.124 E-score.

Turning to TCACTCAA, the binding signal is -0.183 E-score.

For AGCCCTAG, the binding signal is -0.0605 E-score.

Take GACTTCAA: the binding signal was -0.0487 E-score.

CAATCAAC: the binding signal is -0.292 E-score.

As to TCCATCGA, the binding signal was -0.114 E-score.

CTAACAAG: the binding signal was -0.25 E-score.

Consider CTAAACCA, for which the binding signal is -0.0423 E-score.

Consider CCTTGTGA, for which the binding signal worked out at 0.0332 E-score.

With GGATCACC, the binding signal was 0.203 E-score.

Turning to AGCTACCA, the binding signal was -0.0585 E-score.

As to GTCTTCAA, the binding signal is -0.192 E-score.

As to ATATCTTG, the binding signal was -0.1 E-score.

In the case of CGTTCGTC, the binding signal was -0.146 E-score.

For ACGAGCGT, the binding signal came to 0.0651 E-score.

AGCGTAAT: the binding signal is -0.0257 E-score.

With GCCATCAC, the binding signal is -0.217 E-score.

In the case of ATGTAATA, the binding signal is -0.115 E-score.

For CGCTTACA, the binding signal was found to be 0.196 E-score.

Consider GGCTCACA, for which the binding signal is -0.0043 E-score.

Regarding GACTCGAC, the binding signal stood at 0.0878 E-score.

For GAAGTTCA, the binding signal is -0.266 E-score.

On to ATAGCTAA, for which the binding signal was -0.197 E-score.

ATTGTGTA: the binding signal worked out at 0.151 E-score.

In the case of CACGGAAC, the binding signal came out at 0.238 E-score.

Regarding AGATGACT, the binding signal came to 0.00729 E-score.

Consider AGGAGGTG, for which the binding signal was found to be 0.286 E-score.

GGCGCCCA: the binding signal is -0.15 E-score.

As for GTCGGCTA, the binding signal was -0.0612 E-score.

With TCCAGACA, the binding signal turned out to be 0.078 E-score.

Consider CGCCCCCC, for which the binding signal was -0.00467 E-score.

Regarding CACTTCCA, the binding signal was determined as 0.202 E-score.

Consider CCCGGTAG, for which the binding signal amounted to 0.0724 E-score.

As for ACGTGTGG, the binding signal was determined as 0.218 E-score.

Consider GTGATCAA, for which the binding signal was 0.0414 E-score.

As to CCGAGCAG, the binding signal was -0.0678 E-score.

As for GAAATATA, the binding signal is -0.0729 E-score.

Consider AGAGCACA, for which the binding signal is -0.0132 E-score.

With AGTACCAA, the binding signal is -0.0263 E-score.

As for AGTGCTTC, the binding signal is -0.113 E-score.

Take TAACCCAA: the binding signal was -0.017 E-score.

For the sequence AGTCTCCA, the binding signal was -0.0848 E-score.

With ACACTGAC, the binding signal was determined as 0.381 E-score.

In the case of CGCTGAGC, the binding signal is -0.25 E-score.

Turning to GAAGACCA, the binding signal is -0.174 E-score.

Turning to CGTCCATA, the binding signal was -0.111 E-score.

As for AACTATGC, the binding signal was -0.125 E-score.

Consider CGGTCCGA, for which the binding signal was -0.197 E-score.

With CATGTCAC, the binding signal was found to be 0.0812 E-score.

For the sequence GGGGCGGA, the binding signal is 0.109 E-score.

For the sequence CCCGCGCC, the binding signal turned out to be 0.154 E-score.

Regarding ACAGGGCT, the binding signal is -0.0118 E-score.

For the sequence CCCCTATA, the binding signal turned out to be 0.106 E-score.

As for GCCCCGTA, the binding signal is -0.129 E-score.

In the case of AGTCGCAT, the binding signal was -0.114 E-score.

As to AGAAGAAC, the binding signal was -0.142 E-score.

As to ACTTCGCT, the binding signal is -0.0234 E-score.

In the case of GTCTTATA, the binding signal is 0.0543 E-score.

In the case of GGCATACA, the binding signal was 0.0981 E-score.

As for AGTCTGCA, the binding signal was -0.156 E-score.

For CAGCGGCA, the binding signal is -0.372 E-score.

As for CTCCAGGC, the binding signal turned out to be 0.0595 E-score.

In the case of CGAAGTAA, the binding signal is -0.108 E-score.

Regarding GCCAGAAC, the binding signal is 0.00273 E-score.

On to ATTCTTAA, for which the binding signal is -0.0926 E-score.

As to AACCTAAA, the binding signal was -0.143 E-score.

With TATCTAGA, the binding signal turned out to be 0.0317 E-score.

For the sequence TCTTTTCA, the binding signal was -0.193 E-score.

Take CCACCTAA: the binding signal stood at 0.0742 E-score.

Turning to CACCAAGG, the binding signal was determined as 0.265 E-score.

Turning to CACGGGTC, the binding signal was found to be 0.253 E-score.

For the sequence TGTCACAA, the binding signal came out at 0.129 E-score.

For ACCTGAAT, the binding signal came out at 0.0132 E-score.

On to CCCAGGGC, for which the binding signal is -0.138 E-score.

For AATCGACA, the binding signal stood at 0.173 E-score.

On to AGTAGTCG, for which the binding signal is -0.0658 E-score.

Regarding AGGTGTAA, the binding signal came out at 0.463 E-score.

As for GACCGCGC, the binding signal was -0.101 E-score.

Take CAGCTGTC: the binding signal was -0.196 E-score.

Turning to GATTCTAA, the binding signal is -0.117 E-score.

Consider GTGCGCAA, for which the binding signal was 0.0875 E-score.

As for ATACATGG, the binding signal was -0.0113 E-score.

In the case of AAGGTCTA, the binding signal is -0.0963 E-score.

Regarding GACAGCCC, the binding signal was -0.299 E-score.

On to CCATCACA, for which the binding signal worked out at 0.103 E-score.

Turning to AAACGTTA, the binding signal is -0.0516 E-score.

Consider CCTAATCA, for which the binding signal is -0.0718 E-score.

As to CGTCCCCA, the binding signal was -0.0489 E-score.

With AAGCTGAC, the binding signal was -0.284 E-score.

As for GCCGTACA, the binding signal worked out at 0.133 E-score.

In the case of CTCATGCA, the binding signal was -0.107 E-score.

Regarding CCGACGCA, the binding signal is -0.0586 E-score.

Turning to CAACATCA, the binding signal was -0.14 E-score.

With GCTCTAGA, the binding signal is -0.243 E-score.

On to CAGGGACG, for which the binding signal stood at 0.0241 E-score.

On to GGTTTAAC, for which the binding signal came to 0.193 E-score.

On to AATCTTGT, for which the binding signal is -0.202 E-score.

Consider CCAACCTA, for which the binding signal is -0.176 E-score.

For GCAGGTAA, the binding signal is -0.14 E-score.

With AATTCGGC, the binding signal is -0.0519 E-score.

ATTTAATG: the binding signal was -0.0932 E-score.

Turning to AAGAACTA, the binding signal was -0.129 E-score.

Regarding ATGGCTTC, the binding signal is -0.208 E-score.

Regarding CGCAGGGA, the binding signal was -0.0293 E-score.

Take AACCGCCG: the binding signal is -0.0826 E-score.

In the case of AAGAGGAT, the binding signal was found to be 0.0451 E-score.

As to ATCTTCAT, the binding signal was -0.249 E-score.

For the sequence GCCCTCAA, the binding signal was -0.0616 E-score.

For GATCTAGA, the binding signal is -0.183 E-score.

GATCCTGA: the binding signal was -0.0224 E-score.

Take TCAGAGCA: the binding signal is -0.131 E-score.

As for AAAACATC, the binding signal is -0.00295 E-score.

AAACAACT: the binding signal is -0.13 E-score.

CAGAGACA: the binding signal was determined as 0.0702 E-score.

As for AGGTCCCC, the binding signal was -0.148 E-score.

As to CTCGGAAA, the binding signal was -0.00597 E-score.

Consider CCGCAAAA, for which the binding signal amounted to 0.0302 E-score.

Take ACGACTAG: the binding signal is 0.0587 E-score.

With AAATAGCA, the binding signal is -0.0795 E-score.

In the case of ATCGCTTC, the binding signal is -0.14 E-score.

For GTTTCAAA, the binding signal is -0.0998 E-score.

In the case of ACTACCGG, the binding signal was 0.118 E-score.

Turning to ATCCGCAT, the binding signal was 0.00834 E-score.

With ATGTACGG, the binding signal is -0.115 E-score.

Turning to TCTTACAA, the binding signal was found to be 0.0494 E-score.

In the case of AGATGAGA, the binding signal is -0.0389 E-score.

Take AACACCTA: the binding signal amounted to 0.444 E-score.

CCCTGTGA: the binding signal amounted to 0.0909 E-score.

On to ACAGGAAG, for which the binding signal came out at 0.0565 E-score.

Consider AGAGTGAG, for which the binding signal is 0.0316 E-score.

With GTACACAA, the binding signal amounted to 0.308 E-score.

On to AATTACAA, for which the binding signal was -0.129 E-score.

For TGACACAA, the binding signal came to 0.298 E-score.

In the case of ATCAAAAC, the binding signal is -0.0115 E-score.

In the case of GTAGGAAA, the binding signal is -0.0356 E-score.

Turning to CGCGAATC, the binding signal was -0.0176 E-score.

Take AGGATTCG: the binding signal came out at 0.00895 E-score.

With GGCAGAGA, the binding signal was -0.28 E-score.

With CTCTGCGA, the binding signal is -0.0488 E-score.

CATAGCCG: the binding signal was -0.1 E-score.

Consider ATTACCAG, for which the binding signal was -0.155 E-score.

As for TGATTGCA, the binding signal was -0.0908 E-score.

Regarding GCCATCAA, the binding signal was -0.183 E-score.

Take GTTCCTTA: the binding signal was -0.072 E-score.

GTGTTTAA: the binding signal worked out at 0.375 E-score.

Consider GATTAATC, for which the binding signal came to 0.0169 E-score.

As for AGCCGCTA, the binding signal was -0.208 E-score.

Regarding CAAGGTCA, the binding signal was 0.0971 E-score.

In the case of CCAGGTCC, the binding signal was -0.0461 E-score.

On to TCGATAAA, for which the binding signal was -0.164 E-score.

With GCCCTTCA, the binding signal was -0.302 E-score.

For GATCTTTA, the binding signal is -0.0615 E-score.

As for CGAGAAGA, the binding signal was -0.23 E-score.

CATGTACA: the binding signal worked out at 0.167 E-score.

In the case of CGTATTAG, the binding signal was 0.11 E-score.

As to GACTTCCA, the binding signal is -0.194 E-score.

The record behind these values is publication PMC10668032.
